Experimental data published in the GPR68 mutational scans of Howard et al. (2025).
Scores whose standard error is large were omitted. Not listed are two conditions whose scores span a narrow range. Read del as a deletion of the residues named and ins as an insertion between two positions. For some assays here: The concentration of ogerin is not given here.

B1: GPR68, Q15743 (parent)
chain: MGNITADNSSMSCTIDHTIHQTLAPVVYVTVLVVGFPANCLSLYFGYLQIKARNELGVYLCNLTVADLFYICSLPFWLQYVLQHDNWSHGDLSCQVCGILLYENIYISVGFLCCISVDRYLAVAHPFRFHQFRTLKAAVGVSVVIWAKELLTSIYFLMHEEVIEDENQHRVCFEHYPIQAWQRAINYYRFLVGFLFPICLLLASYQGILRAVRRSHGTQKSRKDQIQRLVLSTVVIFLACFLPYHVLLLVRSVWEASCDFAKGVFNAYHFSLLLTSFNCVADPVLYCFVSETTHRDLARLRGACLAFLTCSRTGRAREAYPLGAPEASGKSGAQGEEPELLTKLHPAFQTPNSPGSGGFPTGRLA

How the values were obtained:
[1] = variants of: B1; test: cAMP reporter score (Enrich2 score, wild type = 0); higher = more signal; HEK293T, FACS bins
[2] = variants of: B1; test: surface expression score (Enrich2 score, wild type = 0); higher = more signal; HEK293T, FACS bins

## L100K
[1]; pH 5.5
  cAMP reporter score: -0.785
[1]; pH 6
  cAMP reporter score: -0.947
[1]; pH 6, modulator: ogerin
  cAMP reporter score: -2.13
[2]
  surface expression score: -1.7

## L100M
[1]; pH 5.5
  cAMP reporter score: -0.586
[1]; pH 6
  cAMP reporter score: -0.981
[1]; pH 6, modulator: ogerin
  cAMP reporter score: -1.46
[1]; pH 6.5, modulator: ogerin
  cAMP reporter score: -0.999
[2]
  surface expression score: -0.325

## L100N
[1]; pH 5.5
  cAMP reporter score: -1.89
[1]; pH 6
  cAMP reporter score: -1.21
[1]; pH 6, modulator: ogerin
  cAMP reporter score: -1.35
[1]; pH 6.5, modulator: ogerin
  cAMP reporter score: -0.758
[2]
  surface expression score: -3.13

## L100P
[1]; pH 5.5
  cAMP reporter score: -1.57
[1]; pH 6
  cAMP reporter score: -0.133
[1]; pH 6, modulator: ogerin
  cAMP reporter score: -0.829
[1]; pH 6.5, modulator: ogerin
  cAMP reporter score: -1.43
[2]
  surface expression score: -1.51

## L100Q
[1]; pH 5.5
  cAMP reporter score: -1.66
[1]; pH 6
  cAMP reporter score: -1.56
[1]; pH 6, modulator: ogerin
  cAMP reporter score: -1.17
[1]; pH 6.5, modulator: ogerin
  cAMP reporter score: -0.969
[2]
  surface expression score: -2.51

## L100R
[1]; pH 5.5
  cAMP reporter score: -0.837
[1]; pH 6
  cAMP reporter score: -0.772
[1]; pH 6, modulator: ogerin
  cAMP reporter score: -1.31
[1]; pH 6.5, modulator: ogerin
  cAMP reporter score: -1.28
[2]
  surface expression score: -2.04

## L100S
[1]; pH 5.5
  cAMP reporter score: -0.771
[1]; pH 6
  cAMP reporter score: -0.958
[1]; pH 6, modulator: ogerin
  cAMP reporter score: -1.02
[1]; pH 6.5, modulator: ogerin
  cAMP reporter score: -1.51
[2]
  surface expression score: -1.16

## L100T
[1]; pH 5.5
  cAMP reporter score: 0.945
[1]; pH 6
  cAMP reporter score: -0.265
[1]; pH 6, modulator: ogerin
  cAMP reporter score: -0.831

## L100W
[1]; pH 5.5
  cAMP reporter score: -1.33
[1]; pH 6, modulator: ogerin
  cAMP reporter score: -2.29
[1]; pH 6.5, modulator: ogerin
  cAMP reporter score: -1.85
[2]
  surface expression score: -0.601

## L100Y
[1]; pH 5.5
  cAMP reporter score: -2.27
[1]; pH 6
  cAMP reporter score: -0.633
[1]; pH 6, modulator: ogerin
  cAMP reporter score: -1.67
[1]; pH 6.5, modulator: ogerin
  cAMP reporter score: -2.27
[2]
  surface expression score: -1.01

## L100_L101insGS
[1]; pH 5.5
  cAMP reporter score: -1.28
[1]; pH 6
  cAMP reporter score: 0.268
[1]; pH 6, modulator: ogerin
  cAMP reporter score: -1.13
[1]; pH 6.5, modulator: ogerin
  cAMP reporter score: -0.59
[2]
  surface expression score: -2.34

## L100_Y102del
[1]; pH 5.5
  cAMP reporter score: -1.25
[1]; pH 6
  cAMP reporter score: -0.629
[1]; pH 6, modulator: ogerin
  cAMP reporter score: -1.87
[1]; pH 6.5, modulator: ogerin
  cAMP reporter score: -1.42
[2]
  surface expression score: -1.91

## L101A
[1]; pH 5.5
  cAMP reporter score: -0.67
[1]; pH 6
  cAMP reporter score: -0.311
[1]; pH 6, modulator: ogerin
  cAMP reporter score: -0.472
[1]; pH 6.5, modulator: ogerin
  cAMP reporter score: -0.644
[2]
  surface expression score: 0.604

## L101C
[1]; pH 5.5
  cAMP reporter score: -0.503
[1]; pH 6
  cAMP reporter score: -0.616
[1]; pH 6, modulator: ogerin
  cAMP reporter score: -2.27
[1]; pH 6.5, modulator: ogerin
  cAMP reporter score: -0.953
[2]
  surface expression score: -0.182

## L101D
[1]; pH 5.5
  cAMP reporter score: -0.413
[1]; pH 6
  cAMP reporter score: -0.762
[2]
  surface expression score: -1.63

## L101E
[1]; pH 5.5
  cAMP reporter score: -2.17
[1]; pH 6, modulator: ogerin
  cAMP reporter score: -0.75

## L101F
[1]; pH 5.5
  cAMP reporter score: -0.132
[1]; pH 6, modulator: ogerin
  cAMP reporter score: -1.49
[1]; pH 6.5, modulator: ogerin
  cAMP reporter score: -1.07
[2]
  surface expression score: -0.916

## L101G
[1]; pH 5.5
  cAMP reporter score: -0.502
[1]; pH 6, modulator: ogerin
  cAMP reporter score: -1.64
[2]
  surface expression score: -0.028

## L101H
[1]; pH 5.5
  cAMP reporter score: -1.92
[1]; pH 6
  cAMP reporter score: -0.311
[1]; pH 6, modulator: ogerin
  cAMP reporter score: -0.343
[1]; pH 6.5, modulator: ogerin
  cAMP reporter score: -1.62
[2]
  surface expression score: -0.429

## L101I
[1]; pH 5.5
  cAMP reporter score: -0.568
[1]; pH 6.5, modulator: ogerin
  cAMP reporter score: 0.3
[2]
  surface expression score: -0.422

## L101K
[1]; pH 5.5
  cAMP reporter score: -0.382
[1]; pH 6
  cAMP reporter score: -0.941
[1]; pH 6.5, modulator: ogerin
  cAMP reporter score: -0.916
[2]
  surface expression score: -0.755

## L101M
[1]; pH 5.5
  cAMP reporter score: 1.6
[2]
  surface expression score: 1.96

## L101N
[1]; pH 5.5
  cAMP reporter score: -1.09
[1]; pH 6, modulator: ogerin
  cAMP reporter score: -1.66
[1]; pH 6.5, modulator: ogerin
  cAMP reporter score: -1.04

## L101P
[1]; pH 5.5
  cAMP reporter score: -0.402
[1]; pH 6
  cAMP reporter score: -0.21
[1]; pH 6, modulator: ogerin
  cAMP reporter score: -0.545
[1]; pH 6.5, modulator: ogerin
  cAMP reporter score: -0.547
[2]
  surface expression score: -0.546

## L101Q
[1]; pH 5.5
  cAMP reporter score: -1.91
[1]; pH 6
  cAMP reporter score: -1.61
[1]; pH 6, modulator: ogerin
  cAMP reporter score: -1.46
[1]; pH 6.5, modulator: ogerin
  cAMP reporter score: -1.28
[2]
  surface expression score: -0.962

## L101R
[1]; pH 5.5
  cAMP reporter score: -0.532
[1]; pH 6
  cAMP reporter score: -0.945
[1]; pH 6, modulator: ogerin
  cAMP reporter score: -2.08
[1]; pH 6.5, modulator: ogerin
  cAMP reporter score: -1.45
[2]
  surface expression score: -0.988

## L101S
[1]; pH 5.5
  cAMP reporter score: -1.22
[1]; pH 6
  cAMP reporter score: -1.76
[1]; pH 6, modulator: ogerin
  cAMP reporter score: -1.58
[1]; pH 6.5, modulator: ogerin
  cAMP reporter score: 0.559
[2]
  surface expression score: -0.463

## L101V
[1]; pH 5.5
  cAMP reporter score: -0.675
[1]; pH 6
  cAMP reporter score: -0.134
[1]; pH 6, modulator: ogerin
  cAMP reporter score: -0.449
[1]; pH 6.5, modulator: ogerin
  cAMP reporter score: -1.64
[2]
  surface expression score: -0.023

## L101W
[1]; pH 5.5
  cAMP reporter score: -1.03
[1]; pH 6
  cAMP reporter score: -0.474
[1]; pH 6, modulator: ogerin
  cAMP reporter score: -0.989
[1]; pH 6.5, modulator: ogerin
  cAMP reporter score: -1.23
[2]
  surface expression score: -0.115

## L101Y
[1]; pH 5.5
  cAMP reporter score: 0.52
[1]; pH 6.5, modulator: ogerin
  cAMP reporter score: 1.77
[2]
  surface expression score: -1.36

## L101_Y102insGS
[1]; pH 5.5
  cAMP reporter score: -2.83
[1]; pH 6, modulator: ogerin
  cAMP reporter score: -0.24
[2]
  surface expression score: -2.14

## L101_Y102insGSG
[1]; pH 5.5
  cAMP reporter score: -0.406
[1]; pH 6
  cAMP reporter score: -1.4
[1]; pH 6.5, modulator: ogerin
  cAMP reporter score: -2.02
[2]
  surface expression score: -2.46

## Y102_E103del
[1]; pH 5.5
  cAMP reporter score: -1.21
[1]; pH 6
  cAMP reporter score: -1.38
[1]; pH 6, modulator: ogerin
  cAMP reporter score: -1.53
[1]; pH 6.5, modulator: ogerin
  cAMP reporter score: -1.4
[2]
  surface expression score: -2.03

## Y102_E103insGSG
[1]; pH 5.5
  cAMP reporter score: -0.808
[1]; pH 6
  cAMP reporter score: -2.22
[1]; pH 6, modulator: ogerin
  cAMP reporter score: -0.672
[1]; pH 6.5, modulator: ogerin
  cAMP reporter score: -0.631
[2]
  surface expression score: -2.86

## Y102del
[1]; pH 5.5
  cAMP reporter score: -1.4
[1]; pH 6
  cAMP reporter score: -1.27
[1]; pH 6, modulator: ogerin
  cAMP reporter score: -1.04
[1]; pH 6.5, modulator: ogerin
  cAMP reporter score: -0.685
